Data as given in paper PMC4336329 (PLoS ONE, 2015).
Among all 310,000 compounds or so, about 14,000 (4.5%) showed an effect of 50% or more. The effect is printed as a negative number. The list shows a part of the results.

Each molecule was assayed against human ether-à-go-go-related gene (hERG) potassium channel (human, UniProt Q12809) (assay: primary screen, population patch clamp on CHO cells stably expressing hERG).
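Note: peak tail current of the secondary pulse compared with the same well before compound.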

human ether-à-go-go-related gene (hERG) potassium channel, sequence (Q12809 whole entry, looked up): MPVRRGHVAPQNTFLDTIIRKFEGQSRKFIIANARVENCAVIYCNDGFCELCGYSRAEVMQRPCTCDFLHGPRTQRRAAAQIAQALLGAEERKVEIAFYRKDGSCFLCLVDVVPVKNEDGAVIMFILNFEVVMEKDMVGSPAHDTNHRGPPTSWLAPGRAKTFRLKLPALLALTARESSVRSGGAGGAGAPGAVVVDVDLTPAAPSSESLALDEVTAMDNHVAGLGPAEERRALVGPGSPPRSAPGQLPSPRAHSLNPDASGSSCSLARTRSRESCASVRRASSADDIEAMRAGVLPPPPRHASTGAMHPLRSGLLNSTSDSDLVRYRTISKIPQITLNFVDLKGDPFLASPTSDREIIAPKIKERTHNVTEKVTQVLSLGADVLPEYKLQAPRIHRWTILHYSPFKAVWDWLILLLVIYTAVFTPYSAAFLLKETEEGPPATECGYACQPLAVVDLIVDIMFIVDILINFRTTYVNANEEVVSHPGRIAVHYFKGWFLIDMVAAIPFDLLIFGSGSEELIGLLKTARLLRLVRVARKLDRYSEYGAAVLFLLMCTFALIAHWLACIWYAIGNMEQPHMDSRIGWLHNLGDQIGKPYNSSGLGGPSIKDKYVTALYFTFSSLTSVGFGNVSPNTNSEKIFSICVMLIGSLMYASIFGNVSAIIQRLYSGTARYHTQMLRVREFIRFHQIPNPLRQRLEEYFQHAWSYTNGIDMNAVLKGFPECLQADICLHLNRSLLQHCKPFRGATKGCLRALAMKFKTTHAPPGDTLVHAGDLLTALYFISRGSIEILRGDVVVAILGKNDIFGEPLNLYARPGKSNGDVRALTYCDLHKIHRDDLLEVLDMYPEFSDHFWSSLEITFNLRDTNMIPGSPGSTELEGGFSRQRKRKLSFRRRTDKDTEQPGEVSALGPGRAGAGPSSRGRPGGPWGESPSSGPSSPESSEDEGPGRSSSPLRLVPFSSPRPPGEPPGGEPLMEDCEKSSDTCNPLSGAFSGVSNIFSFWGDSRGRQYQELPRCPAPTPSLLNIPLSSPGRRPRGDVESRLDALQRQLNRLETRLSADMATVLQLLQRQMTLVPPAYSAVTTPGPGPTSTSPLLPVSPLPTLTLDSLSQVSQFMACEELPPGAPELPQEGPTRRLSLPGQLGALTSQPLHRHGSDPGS

| Compound | hERG current change (%, negative = inhibition) at 10uM [%] |
| --- | --- |
| O=C(Cc1cccc(C(F)(F)F)c1)N1CCN(CC(=O)N2CCCC2)CC1 | -5.15 |
| CCCc1nnc(SCc2ccc(C(=O)OC)o2)n1N | 2.57 |
| Cc1c(C(=O)N2CCC2)oc2ccc(Br)cc12 | -41.8 |
| Cc1cc(=O)nc2c3ccccc3n(CC(=O)NCCCN3CCCCC3C)n12 (stereo not shown) | 21 |
| CC(CCc1ccccc1)NC(=O)C1CCN(S(=O)(=O)N2CCCCC2)CC1 (stereo not shown) | -23.3 |
| COC(=O)c1[nH]c2ccc(C)cc2c1NC(=O)CN1CCN(c2ccccc2)CC1 | -13.7 |
| O=C(Cc1nnc(NC(=O)c2cccc([N+](=O)[O-])c2)s1)NCc1ccccc1 | 15.2 |
| COc1ccc(N2C(=O)C3CCCN3C2c2ccccc2Cl)cc1 (stereo not shown) | -1.95 |
| CC(C)C(NS(=O)(=O)c1ccc2c(c1)C(C)(C)C(=O)N2C)C(=O)NCc1ccccc1Cl (stereo not shown) | -2.2 |
| COc1ccc(-n2cc(CNCC3CC(=O)N(C4CC4)C3)c(-c3ccccc3Cl)n2)cc1 (stereo not shown) | -13.4 |
| COc1ccccc1N1CCN(C(=O)c2ccc(N3CCCC3=O)cc2)CC1 | 0.8 |
| COC(=O)c1ccc(-c2ccc(/C=N/NC(=O)CC3(C)OCCCO3)o2)cc1 | -11.1 |
| COc1ccc(C(C)NC(=S)NCc2ccc(F)cc2)cc1OC (stereo not shown) | -5.63 |
| COc1ccc(OC)c(C(=O)Cn2nnc(-c3ccc(N4CCOCC4)cc3)n2)c1 | 16.4 |
| CC(C)CCn1c(CN(C)Cc2ccccc2)nc2c1c(=O)n(C)c(=O)n2C | -43.9 |
| O=C1CC(c2ccccc2)Sc2nc(-c3ccccc3)c(-c3ccccc3)n21 (stereo not shown) | 3.84 |
| COc1ccc(N2CCC(CNC(=S)Nc3cc(C)cc(C)c3)C2)cc1 (stereo not shown) | -0.999 |
| CCNC(=O)N1C(CC(=O)OCC)C(=O)NC2CCCCC21 (stereo not shown) | 8.23 |
| COC(=O)c1cccc(NC(=O)CCCOc2ccccc2)c1 | -9.19 |
| S=C(NCC1CCCO1)n1nnc2ccccc21 (stereo not shown) | -4.52 |
| CC(=O)c1cccc(NC(=S)NC(=O)c2ccc(C)cc2)c1 | 22.4 |
| COc1cccc(CNc2cccc(C(F)(F)F)c2)c1O | 0.746 |
| Cc1nc2ccc(S(=O)(=O)NCC(=O)N3CCC(N4CCCCC4)CC3)cc2s1 | -44.2 |

| Compound | hERG current change (%, negative = inhibition) at 10uM [%] |
| --- | --- |
| CSc1nncc(=O)[nH]1 | -2.32 |
| COc1ccc(OC)c(NC(=O)CSc2nc3nc(C)cc(C)n3n2)c1 | -8.1 |
| NC(=O)Cc1nc(-c2ccccc2)cs1 | 12.5 |
| Cc1ccc(C)c(OCc2nnc(N)s2)c1 | 11.3 |
| Cc1cccc(NS(=O)(=O)c2cc3c4c(c2)C(C)C(=O)N4CCC3)c1 (stereo not shown) | 5.81 |
| CN(CC(=O)NCc1cccs1)S(=O)(=O)c1cccc2cccnc12 | 8.53 |
| COc1ccc(C2(CNC(=O)c3cccc([N+](=O)[O-])c3)CCCCC2)cc1OC | -29.4 |
| C/C(=N\OC(=O)NC1CCCCC1)c1sc(-c2ccccc2)nc1C | -19.5 |
| CCn1c(NCc2ccccn2)nc2c1c(=O)n(C)c(=O)n2C | -11 |
| O=C1NC(=O)C(=O)N1 | 0.783 |
| COc1ccc(NC(=O)CSc2nc(C3CC3)nc3ccccc23)cc1 | 5.62 |
| O=C1CCN(Cc2ccc([N+](=O)[O-])cc2)CCN1[C@H](CO)Cc1ccccc1 | -29.5 |
| CC(Sc1nn(-c2ccc(Cl)cc2)c(=S)s1)C(=O)NCC1CCCO1 (stereo not shown) | -15.1 |
| CCOc1cc(C(=O)OCC(=O)Nc2cc(C)on2)ccc1OCC(C)C | 3.71 |
| CCCc1cc(=O)oc2cc(C)cc(OC(C)C(=O)N[C@@H](Cc3c[nH]c4ccccc34)C(=O)O)c12 (stereo partly shown) | 15.2 |
| CN(C)S(=O)(=O)n1cnc([C@H]2c3c(ncn3Cc3ccccc3)C[C@H]3COC(=O)[C@@H]32)c1 | -4.15 |
| CCCN(CCC)S(=O)(=O)c1ccc(C(=O)O)cc1 | -5.57 |
| O=C1CCCN1CC(O)CS(=O)(=O)Cc1ccccc1Cl (stereo not shown) | 18.7 |
| NC(=O)c1ccsc1NC(=O)CN1C(=O)C2CC=CCC2C1=O (stereo not shown) | 9.87 |
| Nc1ccc(C(=O)OCC(=O)Nc2cc([N+](=O)[O-])ccc2F)cc1 | 9.82 |
| COc1ccc(CN(C)S(=O)(=O)c2nnc(NC(=O)c3cccc(C)c3)s2)cc1OC | 12.9 |
| COc1ccc(OC)c(NC(=O)C2CCCN(S(=O)(=O)c3ccc(-n4cnnn4)cc3)C2)c1 (stereo not shown) | -12.5 |
| COc1cc2oc3cc(C)oc(=O)c3c2cc1OC | -16.9 |

| Compound | hERG current change (%, negative = inhibition) at 10uM [%] |
| --- | --- |
| COc1cc(-c2nc3c4ccccc4nc(=S)n3[nH]2)cc(OC)c1OC | 28.9 |
| CCOC(=O)c1cnn(CCOC(=O)C2CC2)c1NC(=O)C1CC1 | -1.17 |
| C=CCn1c(SCC#N)nc2ccccc2c1=O | 2.11 |
| Cc1ccc(S(=O)(=O)NC(=O)NCC2CCN(S(=O)(=O)c3ccccc3)CC2)cc1 | 7.31 |
| COc1ccc2c(=O)c(-c3ccccc3)coc2c1 | 8.57 |
| Cn1c(N)c(C(=O)Nc2ccc(-c3ccccc3)cc2)sc1=S | 12.2 |
| CC(C)(C)c1ccc(C(=O)N2CCC(NC(=O)c3ccccc3)CC2)cc1 | -1.48 |
| COc1ccc(NC(=O)CN2CCC(Cc3ccccc3)CC2)cc1S(=O)(=O)N1CCOCC1 | -25.3 |
| O=C(CN1CCOCC1)Nc1ncccn1 | 18.1 |
| O=C(CNC(=O)c1ccccc1)OCC(=O)N1c2ccccc2Sc2ccccc21 | 13.4 |
| Cc1cc(C)c2c(=O)n(CC(=O)NCCCN3CCN(c4ccccc4F)CC3)sc2n1 | -55.3 |
| CCN(CC)C(=O)CC(c1ccc2c(c1)OCO2)c1c(O)cc(OC)cc1OC (stereo not shown) | -2.77 |
| CSc1nc(C)c(Cc2ccccc2)c(=O)[nH]1 | 30.6 |
| COc1cccc(C(=O)Nc2c(C)n[nH]c2C)c1 | -0.143 |
| Cc1cccnc1NC(=O)COc1ccc2oc3c(c2c1)CCCC3 | 9.39 |
| Cn1nc(C(=O)NCc2cccnc2)c2ccccc2c1=O | -1.75 |
| O=C(COC(=O)c1cccnc1Cl)NCC1CCCO1 (stereo not shown) | 10.8 |
| O=C(COC(=O)CN1C(=O)c2ccccc2C1=O)Nc1ccccc1[N+](=O)[O-] | 1.48 |
| CC(=O)N1CCOc2ccc(S(=O)(=O)NCCc3ccccc3)cc21 | 2.09 |
| CSC(=S)N/N=C(\C)c1ccc(Br)cc1 | 33 |
| CCOc1cc(C(=O)Nc2cc(=O)n(C)c(=O)n2C)cc(OCC)c1OCC | -1.02 |
| COc1cccc(NC(=O)Cn2c(=O)n(-c3ccccc3)c(=O)c3sccc32)c1 | 7.24 |
| Cc1cc(C)n(-c2nc3nonc3nc2Nc2cccc(C)c2C)n1 | 3.08 |

| Compound | hERG current change (%, negative = inhibition) at 10uM [%] |
| --- | --- |
| Cc1cc(Cl)ccc1OCCCC(=O)N1CCN(C(=O)c2ccco2)CC1 | -74.5 |
| C=C(C(=O)c1ccccc1)C(C)CC(=O)c1ccccc1 (stereo not shown) | -0.276 |
| NC(=O)COC(=O)/C=C/c1cccc(Br)c1 | -12.7 |
| Clc1ccc(/C=C/c2nc3ccccc3[nH]2)cc1 | -15.7 |
| Cc1ccccc1OCC(=O)N/N=C/c1cn(C)c2ccccc12 | 0.304 |
| O=C1CCCN1C(=O)c1cncc(Br)c1 | -38.4 |
| OCCC1CN(Cc2ccccc2O)CCN1CCc1ccccc1 (stereo not shown) | -35.6 |
| Cc1ccc(O)c(CCc2ccccc2)n1.Cl | 11.6 |
| COc1cc(OC)c(CN2CCC(CO)(CCOc3ccccc3)CC2)c(OC)c1 | -86.4 |
| CN(CC(=O)Nc1ccc(Cl)cc1)C(=O)Cc1c(F)cccc1Cl | 11.2 |
| COc1ccccc1NC(=O)N(Cc1ccco1)Cc1cc2ccc(C)c(C)c2[nH]c1=O | 8.85 |
| O=C(NCc1ccco1)C(=O)c1cn(CC(=O)N2CCCCCC2)c2ccccc12 | -7.86 |
| O=C(NC(=S)N(CCO)Cc1ccccc1)c1ccc(S(=O)(=O)N2CCCC2)cc1 | 18 |
| Cn1ncc([N+](=O)[O-])c1C(=O)Nc1ccc(C2CCCCC2)cc1 | 13.6 |
| CC(=O)NC(NC(=S)Nc1ccc(N=Nc2ccccc2)cc1)C(Cl)(Cl)Cl (stereo not shown) | 19.6 |
| O=C(O)c1c(N2CCCCC2)ccc([N+](=O)[O-])c1N1CCCCC1 | 12.9 |
| Clc1ccc(-c2cnc3n2CCC3)cc1 | -23.1 |
| COc1ccc(C2(C(=O)Nc3nncs3)CCCC2)cc1 | -14.7 |
| CSc1ccc(CNCCN2CCOCC2)cc1.Cl | -8.98 |
| O=C(NCc1cnn(-c2ccc(F)cc2)c1)C1CCC(=O)N(C2CC2)C1 (stereo not shown) | -13.1 |
| C/C(=N\Nc1ccccn1)c1ccc(OC(F)F)cc1 | -71.3 |
| COc1ccc(CCNC(=O)CSc2ccc(-c3ccccc3)nn2)cc1OC | 5.62 |
